Key:
[1] = target: T1, hGLP1R-MMH (N-terminal region of human GLP1R) (Homo sapiens, UniProt P43220); assay: Biacore binding kinetics (surface plasmon resonance); details: 25° C.
T1 construct: the N-terminal ectodomain of human GLP1R expressed with a myc-myc hexahistidine tag
Experimental: The equilibrium dissociation constant (KD) for GLP1R binding to different unconjugated GLP1R monoclonal antibodies (mAbs) or to GLP1R antibody tethered drug conjugates (ATDCs) was determined using a real-time surface plasmon resonance biosensor using a Biacore 3000, Biacore S200, Biacore 4000, Biacore T-200, or a Sierra Sensor MASS-2 instrument. All binding studies were performed in 10 mM HEPES, 150 mM NaCl, 3 mM EDTA, and 0.05% v/v Surfactant Tween-20, pH 7.4 (HBS-ET) running buffer at 25° C. The Biacore CM5 sensor chip surface was first derivatized by amine coupling with human Fc specific mouse mAb (REGN2567) to capture different GLP1R mAbs or ATDCs. Different concentrations (100, 90, 33.3, 30, 11.1, 10, 3.7, 3.3 and 1.1 nM) of the N-terminal region of human GLP1R expressed with a myc-myc-hexahistidine tag (“hexahistidine tag” disclosed as SEQ ID NO: 441) (hGLP1R-MMH) prepared in HBS-ET running buffer were injected over the GLP1R mAb captured surface for 240 or 300 sec at a flow rate of 50 μL/min and their dissociation in HBS-ET running buffer was monitored for 10 minutes. […]
The association rate (ka) and dissociation rate (kd) were determined by fitting the real-time binding sensorgrams to a 1:1 binding model with mass transport limitation using Scrubber 2.0c curve-fitting software. […]

[2] = test system: HEK293/CRE-Luc cells; assay: Flow cytometry cell binding, HEK293/CRE-Luc control cells (Example 18); set-up: species or system human; details: Table 30, control cells lacking GLP1R
Experimental: GLP1R agonist linker payloads were conjugated to anti-GLP1R antibodies via N-terminal heavy or light chain Glutamine (Q) tags. Several resulting anti-GLP1R-GLP1R agonist antibody tethered drug conjugates (ATDCs) and their unconjugated parental antibodies were tested for cell-based binding activity. The cell surface binding of the anti-GLP1R ATDCs to human GLP1R (HEK293/CRE-Luc/hGLP1R), cynomolgus GLP1R (HEK293/CRE-Luc/mfGLP1R), and control cells lacking expression of GLP1R (HEK293/CRE-Luc) was assessed via flow cytometry. For the assay, 61,000-230,000 cells were suspended in PBS, w/2% FBS and 0.2% sodium azide (staining buffer) in 96 well V-bottom plates and incubated for 30 minutes at 4° C. with three-fold serial dilutions of the anti-GLP1R ATDCs, non-binding control ATDCs, or unconjugated anti-GLP1R antibodies. […] Samples were run on the iQue flow cytometer (Intellicyte) and results were analyzed using Forecyte analysis software (Intellicyte) to calculate the mean fluorescent intensity (MFI) after gating for live cells. EC50 values were determined using a four-parameter logistic equation over a 10-point dose response curve (GraphPad Prism). The signal to noise (S/N) was determined by taking the ratio of the highest MFI on the dose response curve to the MFI in the secondary alone wells.

T1 sequence (P43220 24-139 limits assumed): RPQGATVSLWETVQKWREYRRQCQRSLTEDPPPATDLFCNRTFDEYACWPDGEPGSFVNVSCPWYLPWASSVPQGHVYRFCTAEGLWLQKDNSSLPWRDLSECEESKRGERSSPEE

B1: REGN9278-M3190 (conjugate)
heavy: QVQLQQWGAGLLKPSETLSLTCAVYGGSFSGYYWSWIRQPPGKGLEWIGEINHAGSTNYNPSLKSRITISVDTSKNQFSLKLSSVTAADTAVYYCARGWYYGSGSYHRNWFDPWGQGTLVTVSSASTKGPSVFPLAPCSRSTSESTAALGCLVKDYFPEPVTVSWNSGALTSGVHTFPAVLQSSGLYSLSSVVTVPSSSLGTKTYTCNVDHKPSNTKVDKRV[human IgG4 Fc with S228P (EU numbers) left out here]
light: LLQGSGEIVLTQSPGTLSLSPGERATLSCRASQSVYYSYLAWYQQKPGQAPRLLIYGASNRATGIPDRFSGSGSGTDFTLTISRLEPEDFAVYYCQQYGNSPWTFGQGTKVEIKRTVAAPSVFIFPPSDEQLKSGTASVVCLLNNFYPREAKVQWKVDNALQSGNSQESVTEQDSKDSTYSLSSTLTLSKADYEKHKVYACEVTHQGLSSPVTKSFNRGEC
[1]; association rate
  Ka: 116000 M⁻¹ s⁻¹
[1]; dissociation rate
  dissociation rate constant (kd): 0.000127 s⁻¹

B2: REGN9278 unconjugated Ab (antibody)
heavy: QVQLQQWGAGLLKPSETLSLTCAVYGGSFSGYYWSWIRQPPGKGLEWIGEINHAGSTNYNPSLKSRITISVDTSKNQFSLKLSSVTAADTAVYYCARGWYYGSGSYHRNWFDPWGQGTLVTVSSASTKGPSVFPLAPCSRSTSESTAALGCLVKDYFPEPVTVSWNSGALTSGVHTFPAVLQSSGLYSLSSVVTVPSSSLGTKTYTCNVDHKPSNTKVDKRV[human IgG4 Fc with S228P (EU numbers) left out here]
light: LLQGSGEIVLTQSPGTLSLSPGERATLSCRASQSVYYSYLAWYQQKPGQAPRLLIYGASNRATGIPDRFSGSGSGTDFTLTISRLEPEDFAVYYCQQYGNSPWTFGQGTKVEIKRTVAAPSVFIFPPSDEQLKSGTASVVCLLNNFYPREAKVQWKVDNALQSGNSQESVTEQDSKDSTYSLSSTLTLSKADYEKHKVYACEVTHQGLSSPVTKSFNRGEC
[2]; no unit printed in table (text reads values as M)
  EC50: > 100 nM
[2]; signal to noise
  HEK293/CRE-Luc Flow S/N: 11.9
